# Measured values: PubChem BioAssay AID686970 (National Center for Advancing Translational Sciences (NCATS), 2013)
# Hit rate of the full screen: of about 360,000 compounds, about 6,000 (1.7%) were called active. Inconclusive results, whose numbers are uncertain, are shown with a selection of clear calls. Calls come from the whole dose curve; as a rule, active = well fitted cell-killing curve with a large enough effect; inconclusive = small, poorly fitted or top-dose-only effect, or effect the other way; inactive = flat fitted curve, though single readings scatter. Potencies of inconclusive entries are left out as doubtful fits.
# Experiment: qHTS for induction of synthetic lethality in tumor cells producing 2HG: qHTS for the HT-1080-NT fibrosarcoma cell line;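 note: NT is the 2HG producing partner of a matched IDH1 knockdown line; nearly all actives have a fitted effect of over 55% in size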;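 for activity, negative = less viability: 0% = DMSO-treated cells and -100% = media-only wells without cells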
# Details: HT-1080-NT fibrosarcoma viability, CellTiter-Glo ATP luminescence, 48 h; activity, negative = less viability: at 46.1 µM (top of the series) unless noted
# Summary of the method: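 Viability of the 2HG-overproducing fibrosarcoma line after 48 hours of compound exposure at 37 degrees C was determined by luminescence with CellTiter-Glo, and concentration-effect curves were then fitted and categorized.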
# Potency is the fitted concentration of half-maximal effect; tags give direction and shape of the fitted curve.
Structure (SMILES),Potency,"activity, negative = less viability"
Cc1ccc(NC(=O)CN2C(=O)C(=O)N(C3CCCC3)C2=O)cc1Cl,inactive,
N#Cc1ccc(Cl)cc1NC(=O)COC(=O)c1ccc(S(=O)(=O)N2CCCC2)cc1,inactive,
COCCCNC(=O)c1oc2ccc(S(=O)(=O)N3CCOCC3)cc2c1C,inactive,
COc1ccc(C2NCCc3cc(OC)c(OC)cc32)cc1OC (stereo not given),inactive,
CC1(C(=O)Nc2cccc(OC(F)(F)F)c2)Cc2c(-c3ccc4c(c3)OCO4)ccnc2O1 (stereo not given),"inconclusive [cytotoxic, single point]",
CCCC(NC(=O)CCl)c1ccccc1 (stereo not given),"inconclusive [cytotoxic, single point]",
CC(=O)N1c2ccc(S(=O)(=O)N3CCC(C(=O)N4CCN(c5cccc(C(F)(F)F)c5)CC4)CC3)cc2CC1C (stereo not given),"inconclusive [cytotoxic, single point]",
CN1CCC(N(C)S(=O)(=O)c2ccc(NC(=O)COc3ccc(Br)cc3Cl)cc2)CC1,active: 16.4 µM,
COC(=O)c1cc(OC)ccc1-c1ccc(OC)cc1,"inconclusive [cytotoxic, single point]",
Cc1cc(NC(=O)CSc2nnc(-c3ccc(Cl)s3)o2)no1,"inconclusive [cytotoxic, single point]",
CC1(C(=O)Nc2ccccc2)CCN1C(=O)Cc1ccc(-c2ccccc2)cc1 (stereo not given),"inconclusive [cytotoxic, single point]",
CC(=O)Nc1ccc(S(=O)(=O)N2c3ccccc3C(C)=CC2(C)C)cc1,active: 1.3 µM,
CCc1ccc(C(=O)CN2C(=O)NC3(CCOc4ccccc43)C2=O)s1 (stereo not given),inactive,
CCCCN(C)CCNC(=O)c1cc2c(-c3ccccc3F)nn(C)c2s1,active: 18.4 µM,
COc1ccc(C(=O)N(C)c2ccccc2C(=O)NCCc2ccccc2)cc1,inactive,
CCCNc1nc(-c2ccccc2)c(C(=O)OCC)cc1C#N,"inconclusive [cytotoxic, full curve]",
Oc1cccc(-c2csc(C(O)(c3ccccc3)C(F)(F)F)n2)c1 (stereo not given),"inconclusive [cytotoxic, single point]",
O=C1CC(c2ccccc2)=NN1c1ccc([N+](=O)[O-])cc1,active: 14.6 µM,
CCOc1ccc(-c2cn[nH]c2N)cc1,"inconclusive [cytotoxic, single point]",
Cc1nc2c(OCc3ccc(F)cc3)cccn2c1N(C)C(=O)CCC1CCCC1,"inconclusive [cytotoxic, single point]",
Cn1cc(C2NC(=O)c3ccccc3N2)c2ccccc21 (stereo not given),active: 4.61 µM,
Cc1cc(NC(=O)CCC(=O)N(CC(=O)NC2CCCC2)c2ccc(C(C)C)cc2)no1,inactive,
Cc1ccc2c(c1)CC1(CN2C)C(=O)OC2(CCCCC2)OC1=O,inactive,
Fc1ccccc1C1c2[nH]c3ccccc3c2CCN1Cc1cccn1-c1ncccn1 (stereo not given),"inconclusive [cytotoxic, single point]",
CCOC(=O)[C@]12CCCC=C1N(Cc1ccc(Cl)cc1Cl)C(=O)[C@H](CC(=O)NCc1ccccc1)C2,"inconclusive [cytotoxic, single point]",

Structure (SMILES),Potency,"activity, negative = less viability"
COn1c(SCc2cccc(Cl)c2)nc2ccccc2c1=O,inactive,
O=C(CSc1nccn1-c1ccc(Cl)cc1)N1CCCc2ccccc21,inactive,
COC(=O)c1c(N2C(=O)CC(Sc3ccccc3C(=O)O)C2=O)sc2c1CCCC2 (stereo not given),inactive,
Nc1nc(N)n(-c2ccccc2)c(=Nc2ccccc2)n1,inactive,
COc1ccc(NC(=O)c2c(N)no[n+]2[O-])cc1,active: 0.731 µM,
O=C(CCCN1C(=O)c2cccnc2Oc2ccc(Cl)cc21)N1CCCCC1,inactive,
O=C(Nc1nc2ccccc2[nH]1)c1ccc(Br)o1,"inconclusive [cytotoxic, single point]",
Cc1nc2cc(-c3sccc3-n3cccc3)nn2c(C)c1C,inactive,
Cc1nc2scc(-c3cccs3)c2c(=O)[nH]1,inactive,
COc1cccc(C(=O)Nc2ccc(NC(=O)Cc3ccccc3)cc2)c1,inactive,
COc1ccc(N2CCN(CCNC(=O)c3ccc4c(c3)[nH]c(=S)n3c5ccccc5nc43)CC2)cc1,"inconclusive [cytotoxic, single point]",
CC(C)N1CC(C(=O)Nc2ccc(Cl)c([N+](=O)[O-])c2)CC1=O (stereo not given),inactive,
Clc1ccc(OCCCNCc2ccccc2)c2ccccc12,"inconclusive [cytotoxic, partial curve]",
COc1ccc(C2c3c(-c4ccccc4O)n[nH]c3C(=O)N2Cc2ccco2)cc1OC (stereo not given),"inconclusive [cytotoxic, single point]",
CCCCCCCCN1C(=O)[C@H](CC(=O)N2CCN(C(=O)c3ccco3)CC2)C[C@@]2(C(=O)OC)CCCCC=C12,"inconclusive [cytotoxic, single point]",
Cc1ccn2cc(-c3nonc3C)cc2c1,"inconclusive [cytotoxic, single point]",
CN(C)CCCN(C(=O)c1ccc(Cl)s1)c1nc2cc3c(cc2s1)OCO3,active: 18.4 µM,
C#CCN(C[C@@H]1[C@@H](OC(=O)NCc2ccco2)[C@@H](OC(=O)NCc2ccco2)Cn2c(=O)ccc(=O)n21)S(=O)(=O)c1ccc(C)cc1,active: 14.6 µM,
CCCCNc1c(-c2ccc(SC3CCCCC3)cc2)nc2ccccn12,"inconclusive [cytotoxic, single point]",
CN(C)/C=C/C(=O)c1ccc2noc(-c3ccc(F)cc3)c2c1,inactive,
COc1cc(CNC2CCCC2)cc(Cl)c1OCc1ccc(F)cc1,active: 16.4 µM,
CCn1c(/C=C/c2ccc([N+](=O)[O-])o2)nc2ccccc2c1=O,active: 2.59 µM,
COc1ccccc1S(=O)(=O)N1CCn2cccc2C1C (stereo not given),inactive,
CC(=O)NC(=S)Nc1ccc2oc(=O)ccc2c1,"inconclusive [rising, single point]",
COc1cc(-c2cnc3c(NC=O)cc(-c4ccc(S(C)(=O)=O)cc4)cn23)cc(OC)c1OC,"inconclusive [cytotoxic, partial curve]",

Structure (SMILES),Potency,"activity, negative = less viability"
CC1CCN(C(=S)Nc2ccc3nc4n(c(=O)c3c2)CCCCC4)CC1,inactive,
COc1ccc(NC2=C(NCCO)C(=O)c3ccccc3C2=O)cc1,active: 13 µM,
CCOC(=O)c1c(C=O)c(C)n(Cc2ccc(Cl)cc2)c1C,inactive,
CCOc1ccc(CCN2C(=O)C(=O)N([C@@H](Cc3ccccc3)CN3CCC[C@H]3CN3C(=O)C(=O)NC[C@@H]3Cc3ccccc3)C[C@@H]2Cc2ccc(O)cc2)cc1,"inconclusive [cytotoxic, single point]",
CCOC(=O)Cc1nc(-c2ccccc2)n[nH]1,"inconclusive [rising, partial curve]",
COc1ccc(/C=N/NC(=O)c2cc(C34CC5CC(CC(C5)C3)C4)[nH]n2)cc1O,"inconclusive [cytotoxic, single point]",
COc1ccc(OC)c(NC(=O)C2(C)CCN2Cc2cccc(OC)c2OC)c1 (stereo not given),"inconclusive [cytotoxic, partial curve, poor fit]",
O=C(c1ccccc1)N(Cc1ccc(F)cc1)Cc1nc2ccccc2c(=O)[nH]1,active: 7.08 µM,
O=C(NCc1ccccc1Cl)c1ccc2sc([C@H]3C[C@H](O)[C@@H](CO)O3)nc2c1,inactive,
Cc1cc(NC(=O)c2ccc(C)c([N+](=O)[O-])c2)no1,"inconclusive [rising, partial curve]",
O=Cc1c(Cl)cccc1Cl,"inconclusive [rising, full curve, poor fit]",
O=[N+]([O-])c1ccc(C(O)CN=Cc2ccc(O)cc2O)cc1 (stereo not given),active: 11.6 µM,
CC(C)n1c(=S)[nH]c2ccccc2c1=O,"inconclusive [cytotoxic, single point]",
CCOC(=O)c1c(NC(=O)CSc2nc3ccccc3[nH]2)sc2c1CC(C)(C)NC2(C)C,inactive,
Cc1ccc(C(=S)N2CCCCCC2)cc1,inactive,
Cc1cccc(-c2nnc(SCc3nc4ccccc4[nH]3)n2Cc2ccco2)c1,"inconclusive [cytotoxic, single point]",
O=C(Nc1ccc(F)cc1)C(Sc1nc2ccccc2[nH]1)c1ccccc1 (stereo not given),"inconclusive [cytotoxic, single point]",
COc1ccc(NC(=O)C#Cc2ccccc2)cc1,"inconclusive [cytotoxic, single point]",
CCN1CCN(C(=O)C2CCCN(c3ncnc4c3nc3n4CCCCC3)C2)CC1 (stereo not given),inactive,
CCN(CC)S(=O)(=O)c1cc(NC(=O)CSc2nc3c(cc2C#N)C(=O)CC(C)(C)C3)ccc1C,,inconclusive: -27.2% [cytotoxic]
CCCCCn1nnc2c(=O)oc3ccccc3c21,inactive,
CCc1nc2c(OCC=C(C)C)cccn2c1N(C)C(=O)c1ccc(OC)cc1,"inconclusive [cytotoxic, single point]",
CCc1ccc(NC(=O)C2CCN(S(=O)(=O)c3cccs3)CC2)cc1,"inconclusive [cytotoxic, partial curve, poor fit]",
Cc1cc(NC(=O)CSc2nc(-c3cccs3)cc(C(F)(F)F)n2)no1,active: 0.794 µM,
COc1ccc(/C=C2\CN(Cc3ccccc3)C/C(=C\c3ccc(OC)c(O)c3)C2=O)cc1O,"inconclusive [cytotoxic, full curve]",
